For orientation: IC50 means the point on the concentration scale where inhibition reaches its midpoint. In general, melting point refers to the temperature, or range, at which the solid turns liquid.

Consider 9 compounds from publication PMC6332033, “Synthesis, Crystal Structure, Absolute Configuration and Antitumor Activity of the Enantiomers of 5-Bromo-2-chloro-N-(1-phenylethyl)pyridine-3-sulfonamide” (Molecules, 2015).

For series [1], the target named is PI3Kα kinase (Homo sapiens, UniProt P42336). Description: PI3Kα kinase assay (HTRF). Type of series: biochemical. As for the experimental part: The PI3Kα kinase activities were evaluated using homogeneous time-resolved fluorescence (HTRF) assays as previously reported protocol. Briefly, 20 μg/mL poly (Glu, Tyr) 4:1 (Sigma-Aldrich, St. Louis, MO, USA) was preloaded as a substrate in 384-well plates. Then 50 μL of 10 mM ATP (Invitrogen, Waltham, MA, USA) solution diluted in kinase reaction buffer (50 mM HEPES, pH 7.0, 1 mM DTT, 1 mM MgCl2, 1 mM MnCl2, and 0.1% NaN3) was added to each well. Various concentrations of compounds were diluted in 10 μL of 1% DMSO (v/v), with blank DMSO solution as the negative control. The kinase reaction was initiated by the addition of purified tyrosine kinase proteins diluted in 39 μL of kinase reaction buffer solution. The incubation time for the reactions was 30 min at 25 °C and the reactions were stopped by the addition of 5 μL of Streptavidin-XL665 and 5 μL Tk Antibody Cryptate working solution to all of wells. The plate was read using Envision (Perkin Elmer, Waltham, MA, USA) at 320 nm and 615 nm. IC50 values were calculated from the inhibition curves.
In general terms: In TR-FRET formats the signal depends on donor and acceptor labels being close together.

Series [2] has as its system HepG2 (human hepatocellular carcinoma). Briefly: MTT cytotoxicity / anti-proliferative assay in HepG2. The settings on record: read-out: IC50 HepG2 cytotoxicity, 72 h, average of three determinations.
The subject of series [3] is PI3Kα. The settings on record: cited from earlier work.
Series [4] concerns PI4K IIIα. Also noted: method as in PMID 23944386. The settings on record: cited from earlier work; for pIC50 PI4K IIIα: pIC50 = −log IC50.

Chain of UniProt P42336 (P42336 whole entry): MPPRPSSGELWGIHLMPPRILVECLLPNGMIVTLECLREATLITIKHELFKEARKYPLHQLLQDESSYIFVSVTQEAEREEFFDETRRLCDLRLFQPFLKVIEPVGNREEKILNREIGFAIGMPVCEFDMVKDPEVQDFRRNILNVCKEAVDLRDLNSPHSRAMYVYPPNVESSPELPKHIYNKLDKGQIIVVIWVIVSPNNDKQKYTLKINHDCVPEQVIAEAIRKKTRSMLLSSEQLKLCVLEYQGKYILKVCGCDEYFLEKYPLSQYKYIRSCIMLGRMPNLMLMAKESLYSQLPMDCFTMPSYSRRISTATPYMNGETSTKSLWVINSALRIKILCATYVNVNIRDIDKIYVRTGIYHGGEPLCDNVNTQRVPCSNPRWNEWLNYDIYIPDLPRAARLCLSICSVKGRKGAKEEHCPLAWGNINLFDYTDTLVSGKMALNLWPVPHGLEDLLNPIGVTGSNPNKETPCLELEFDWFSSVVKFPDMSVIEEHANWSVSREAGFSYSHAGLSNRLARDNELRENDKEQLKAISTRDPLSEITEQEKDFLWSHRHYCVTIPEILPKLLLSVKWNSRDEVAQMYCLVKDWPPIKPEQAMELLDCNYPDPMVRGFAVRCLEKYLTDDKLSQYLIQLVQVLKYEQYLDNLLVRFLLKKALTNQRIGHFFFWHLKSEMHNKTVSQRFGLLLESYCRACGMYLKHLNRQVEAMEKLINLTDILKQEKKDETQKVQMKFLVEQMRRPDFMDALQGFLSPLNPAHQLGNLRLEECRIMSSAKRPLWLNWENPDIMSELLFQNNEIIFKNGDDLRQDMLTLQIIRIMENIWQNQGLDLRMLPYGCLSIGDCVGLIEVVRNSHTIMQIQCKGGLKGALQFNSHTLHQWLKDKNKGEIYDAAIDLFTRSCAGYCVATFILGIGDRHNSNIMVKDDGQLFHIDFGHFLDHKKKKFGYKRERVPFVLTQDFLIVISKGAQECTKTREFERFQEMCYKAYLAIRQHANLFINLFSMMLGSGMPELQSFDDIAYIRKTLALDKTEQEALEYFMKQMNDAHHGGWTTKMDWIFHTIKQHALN
Chain of UniProt P42336 (P27986 whole entry partner): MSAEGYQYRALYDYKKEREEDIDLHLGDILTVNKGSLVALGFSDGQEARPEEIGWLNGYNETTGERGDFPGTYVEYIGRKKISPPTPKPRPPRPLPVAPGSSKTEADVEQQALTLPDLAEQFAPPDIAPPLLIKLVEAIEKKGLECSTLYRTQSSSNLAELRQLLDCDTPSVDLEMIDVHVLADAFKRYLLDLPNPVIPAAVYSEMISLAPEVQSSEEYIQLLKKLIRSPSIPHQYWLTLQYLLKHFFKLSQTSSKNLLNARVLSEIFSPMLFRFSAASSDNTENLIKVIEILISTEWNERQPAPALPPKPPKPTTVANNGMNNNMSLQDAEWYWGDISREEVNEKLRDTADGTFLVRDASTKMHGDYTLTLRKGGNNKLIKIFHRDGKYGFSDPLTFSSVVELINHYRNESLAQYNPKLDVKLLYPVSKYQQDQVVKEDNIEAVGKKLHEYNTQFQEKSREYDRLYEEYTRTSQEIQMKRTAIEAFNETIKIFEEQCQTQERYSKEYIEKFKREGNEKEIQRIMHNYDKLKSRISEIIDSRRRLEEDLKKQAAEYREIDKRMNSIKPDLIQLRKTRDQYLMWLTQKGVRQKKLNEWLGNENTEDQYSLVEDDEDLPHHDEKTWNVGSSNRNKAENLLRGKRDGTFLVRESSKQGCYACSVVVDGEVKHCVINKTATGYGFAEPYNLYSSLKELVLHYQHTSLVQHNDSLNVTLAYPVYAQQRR

Take `C[C@@H](NS(=O)(=O)c1cc(Br)cnc1Cl)c1ccccc1` [Compound 10a, (R)-5-Bromo-2-chloro-N-(1-phenylethyl)pyridine-3-sulfonamide]: the melting point is 173.4 to 174.9 °C. This compound also gave a concentration for half-maximal inhibition (IC50) in series [1] of 1080 nM. The concentration for half-maximal inhibition (IC50) in series [2] was 9260 ± 890 nM.

As for `Nc1ncc(-c2ccc3nccc(-c4ccncc4)c3c2)cc1S(N)(=O)=O` [Compound 2], in series [3], the IC50 is 10 nM. For the compound `CCNc1cnc2ccc(-c3cnc(N)c(S(=O)(=O)N(C)C)c3)cc2n1` [Compound 4], in series [3], the half-maximal inhibitory concentration (IC50) was 8 nM. Consider `CS(=O)(=O)N1CCN(Cc2cc3nc(-c4cccc5[nH]ncc45)nc(N4CCOCC4)c3s2)CC1` [GDC-0941], for which, in series [2], the IC50 was 1230 ± 170 nM. Take `O=S(=O)(Nc1ccc(F)cc1F)c1cncc(-c2ccc3nccc(-c4ccncc4)c3c2)c1` [Compound 1]: the IC50 in series [3] is 1 nM. As for `NC(=O)Cn1cc(-c2ccnc3ccc(-c4cncc(S(=O)(=O)Nc5ccc(F)cc5F)c4)cc23)cn1` [Compound 3], the concentration for half-maximal inhibition (IC50) in series [3] is 7.9 nM. `C[C@H](NS(=O)(=O)c1cc(Br)cnc1Cl)c1ccccc1` [Compound 10b, (S)-5-Bromo-2-chloro-N-(1-phenylethyl)pyridine-3-sulfonamide] showed a melting point of 174.5 to 175.5 °C. For the same compound, in series [1], the IC50 turned out to be 2690 nM. Moreover, the half-maximal inhibitory concentration (IC50) in series [2] turned out to be 24200 ± 2340 nM. As for `COc1ncc(-c2ccc3nc(N)n(-c4ccccc4C(F)(F)F)c(=O)c3c2)cc1S(=O)(=O)Nc1ccc(F)cc1F` (single isomer, unassigned) [Compound 6], in series [4] (enantiomer comparison 6 vs 7), the “fold higher PI4K IIIα potency than compound 7” value was 25 ×. The “pIC50 PI4K IIIα” value in series [4] is given as 8.3.

As to `COc1ncc(-c2ccc3nc(N)n(-c4ccccc4C(F)(F)F)c(=O)c3c2)cc1S(=O)(=O)Nc1ccc(F)cc1F` (single isomer, unassigned) [Compound 7], in series [4], the “pIC50 PI4K IIIα” value is 6.9.
